About 50,000 (12%) of roughly 420,000 compounds were called active. This list was built around the results that the source calls inconclusive (neither active nor inactive); the mix of calls is not that of the screen. Calls follow the shape of the dose curve; as a rule, active = well fitted inhibition curve with a large enough effect; inconclusive = small, poorly fitted or top-dose-only effect; inactive = flat fitted curve, though single readings scatter. Potencies of inconclusive entries are left out as doubtful fits.
experiment: qHTS for Inhibitors of human tyrosyl-DNA phosphodiesterase 1 (TDP1): qHTS in cells in presence of CPT; details: chicken DT40 Tdp1-/-;hTDP1 cells + 20 nM CPT, ATP luminescence, 48 h; activity change, negative = growth inhibition: at 46.2 µM (top of the series) unless noted; also: nearly all actives have a fitted effect of over 55% in size
Outline: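 Chicken DT40 Tdp1-/- cells complemented with human TDP1, 400 cells/well, exposed to compounds plus 20 nM camptothecin for at least 48 h at 37 C; viability read as ATP content by CellTiter-Glo luminescence.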
% is scaled to controls: 0 for no effect and ±100 for the full control effect; potency is read from the fitted curve at half-maximal effect; tags tell the direction and shape of the fitted curve.

| Structure (SMILES) | Potency | activity change, negative = growth inhibition |
| --- | --- | --- |
| CC(C)(C)c1ccc(OCC(=O)NNC(=O)c2cccnc2)cc1 | inactive | – |
| CCc1cccc(NC(=O)c2cccc3c2C(=O)N(CC2CCCO2)C3)c1 (stereo not given) | inconclusive [inhibitor, single point] | – |
| CCOC(=O)CCCc1ccc(/C(C)=N/NC(=S)NC)cc1 | inconclusive [inhibitor, single point] | – |
| Cc1cc(C)cc(C(=O)NC(=S)Nc2ccc(-c3cc4ccccc4oc3=O)cc2)c1 | inconclusive [inhibitor, single point] | – |
| CCOC(=O)C1CCCN(S(=O)(=O)c2ccc3c(c2)CCCN3C(C)=O)C1 (stereo not given) | inconclusive [inhibitor, single point] | – |
| O=C(CCN1C(=O)/C(=C/c2cccs2)SC1=S)N1CCCCC1 | active: 5.8 µM | – |
| COc1ccc(NC(=O)c2cc3c(s2)-c2c(C)cccc2OC3)c(OC)c1 | inconclusive [inhibitor, single point] | – |
| CC(C)Oc1ccccc1OC1(C)CCN(Cc2ccc(OC(F)(F)F)cc2)C1 (stereo not given) | inconclusive [inhibitor, single point] | – |
| CCNC(=O)C1CCCN(Cc2ccc(C)c3ccccc23)CC1 (stereo not given) | inconclusive [inhibitor, partial curve] | – |
| O=C(NCc1ccccc1)c1ccc2c(=O)n(CC3CCCO3)c(=S)[nH]c2c1 (stereo not given) | inconclusive [inhibitor, partial curve, poor fit] | – |
| COc1ccccc1NS(=O)(=O)c1cccc(NC(=O)c2sc3ccccc3c2Cl)c1 | inconclusive [inhibitor, single point] | – |
| COc1ccc(S(=O)(=O)Nc2nnc(C(C)(C)C)s2)cc1 | inconclusive [inhibitor, single point] | – |
| COc1ccc(C(=O)NC(=S)Nc2ccc3oc(=O)ccc3c2)cc1 | inconclusive [inhibitor, single point] | – |
| Cc1sc2c(=O)n3c(nc2c1C(=O)NCCCN1CCOCC1)CCCCC3 | inactive | – |
| Cc1ccccc1OCC(=O)N/N=C/c1cccc2cccnc12 | inconclusive [inhibitor, single point] | – |
| NS(=O)(=O)c1ccc(NC(=O)COC(=O)c2ccc(S(=O)(=O)N3CCOCC3)cc2)cc1 | inactive | – |
| COCCC(=O)N1CCCC(C(=O)c2ccc(Oc3ccccc3)cc2)C1 (stereo not given) | inactive | – |
| COc1ccc(C2NC(=O)c3sc4nc(C)c(C(C)=O)c(-c5ccc(Cl)cc5)c4c3N2)cc1 (stereo not given) | inconclusive [inhibitor, single point] | – |
| C=C(C)Cn1c(=O)c2c(nc3n2CCN3c2ccc(CC)cc2)n(C)c1=O | inactive | – |
| Cc1ccc(CN(C)C(=O)C2CCC(=O)N(CCc3ccccc3)C2)o1 (stereo not given) | inconclusive [inhibitor, single point] | – |
| COc1cc(/C=C/C(=O)Nc2ccncc2)cc(OC)c1OC | active: 20.6 µM | – |
| CC(C)(C)NC(=O)CSc1nc2ccc(NC(=O)CSc3nnc(N)s3)cc2s1 | active: 20.6 µM | – |
| CC(C(=O)Nc1ccccc1C(=O)N1CCOCC1)N(c1ccccc1)S(C)(=O)=O (stereo not given) | inconclusive [inhibitor, single point] | – |
| Cn1c(Oc2ccncc2)nc2cc(-c3ccsc3)sc2c1=O | inactive | – |

| Structure (SMILES) | Potency | activity change, negative = growth inhibition |
| --- | --- | --- |
| CN(C)C(=O)C[n+]1ccc(/C=N/O)cc1 | inconclusive [inhibitor, single point] | – |
| CCOC(=O)c1cccc(NC(=O)c2cc3c(=O)n(Cc4ccccc4)ccc3nc2C)c1 | inconclusive [inhibitor, single point] | – |
| CCOc1ccc(NC(=O)CN(C)C(=O)c2cc(-c3ccncc3)nc3ccccc23)cc1OCC | inconclusive [inhibitor, single point] | – |
| Cc1cc(OCC(=O)NNC(=O)c2cccnc2)cc(C)c1Cl | inconclusive [inhibitor, single point] | – |
| CCNC(=S)N(CCc1c(C)[nH]c2ccc(C)cc12)Cc1ccco1 | inconclusive [inhibitor, single point] | – |
| CCN(CC(=O)Nc1ccc2c(c1)OCO2)S(=O)(=O)c1ccccc1 | inconclusive [inhibitor, single point] | – |
| COc1ccc(-c2noc(CCC(=O)NC3CCCCC3)n2)cc1OC | inconclusive [inhibitor, single point] | – |
| Cc1ccc(S(=O)(=O)N2CCCC(C(=O)Nc3ccc(C(=O)O)cc3)C2)cc1Cl (stereo not given) | inactive | – |
| CC(Nc1ncnc2ccccc12)c1ccccc1 (stereo not given) | active: 1.16 µM | – |
| CN(c1ccccc1)S(=O)(=O)c1ccc(C(=O)Nc2cccc(S(=O)(=O)N3CCOCC3)c2)cc1 | active: 7.31 µM | – |
| COc1cccc(-n2c(=O)c3c(C)c(C(=O)N(C)C)sc3n(Cc3ccc(F)cc3Cl)c2=O)c1 | inconclusive [inhibitor, single point] | – |
| Cc1nc2ccccn2c1-c1csc(Nc2cccc(C(=O)O)c2)n1 | inactive | – |
| COC(=O)c1ccc(NC(=O)CSc2ccccc2)cc1 | inconclusive [inhibitor, single point] | – |
| CCCCn1nc2cc(C(=O)NCC34CC5CC(CC(C5)C3)C4)ccc2c1OC | active: 18.4 µM | – |
| O=C(CCC1N=C2c3ccccc3N=C(SCc3ccccc3F)N2C1=O)NC1CCCCC1 (stereo not given) | active: 18.4 µM | – |
| O=C(NCc1ccccc1Cl)c1ccccc1CCc1ccccc1 | inconclusive [inhibitor, single point] | – |
| COc1ccc(C(=O)COC(=O)c2ccccc2O)c(OC)c1 | inconclusive [inhibitor, single point] | – |
| CCOc1cc(C2C(C(=O)OC)=C(C)NC3=C2C(=O)c2ccccc23)cc(Cl)c1O (stereo not given) | inconclusive [inhibitor, single point] | – |
| COc1cccc(C(=O)Nc2cccc(NC(=O)c3ccccc3Cl)c2)c1 | inconclusive [inhibitor, single point] | – |
| Cc1ccc(-n2ncc3c(NCCCN4CCOCC4)ncnc32)cc1 | inconclusive [inhibitor, single point] | – |
| COc1ccc(OCCn2c(C)nc3ccccc32)cc1 | inconclusive [inhibitor, single point] | – |
| COc1ccc(NC(=O)CN(Cc2ccccc2)S(=O)(=O)c2ccc(C)cc2)cc1Cl | active: 18.4 µM | – |
| COC(=O)c1ccc(CNC(=O)C(C)N=C2NS(=O)(=O)c3ccccc32)cc1 (stereo not given) | inactive | – |
| Fc1ccc(-c2nc(Nc3cccc(Cl)c3)nc3c2COc2ccccc2-3)cc1 | inactive | – |

| Structure (SMILES) | Potency | activity change, negative = growth inhibition |
| --- | --- | --- |
| COc1ccccc1OCCC(=O)NCc1ccc2c(c1)OCO2 | inconclusive [inhibitor, single point] | – |
| COc1ccc(/C=N/n2nnnc2N)cc1OC | inactive | – |
| CCCCCc1cc(=O)oc2c(C(CCN3CCCCC3)c3cc(OC)c(OC)c(OC)c3)c(OC)cc(OC)c12 (stereo not given) | inconclusive [inhibitor, single point] | – |
| CCn1c2ccccc2c2nnc(N3CCN(c4cc(C)ccc4C)CC3)nc21 | inactive | – |
| CCOc1ccc(C(=O)Nc2ccccc2N2CCCC2)cc1 | inconclusive [inhibitor, partial curve] | – |
| Cc1nc2ccc([N+](=O)[O-])cc2c(=O)n1Cc1ccc([N+](=O)[O-])cc1 | inconclusive [inhibitor, single point] | – |
| CCOP(=O)(OCC)C(NC(=O)Nc1ccccc1)C(N)=O (stereo not given) | inactive | – |
| COc1cccc2cc(C(=O)CS(=O)(=O)c3ccc(C(C)(C)C)cc3)c(=O)oc12 | inconclusive [inhibitor, single point] | – |
| CC1(C)O[C@@H]2C[C@H]3[C@@H]4CCC5=CC(=O)C=C[C@]5(C)[C@H]4[C@@H](O)C[C@]3(C)[C@]2(C(=O)CO)O1 | inconclusive [inhibitor, partial curve, poor fit] | – |
| COc1ccc(NC(=O)COC(C)=O)cc1Cl | inconclusive [inhibitor, single point] | – |
| CC(C)CCC(C(=O)O)C(C)CC(=O)NC1CCCCC1 (stereo not given) | inactive | – |
| Cc1ccc(NC2CCCN(C(=O)C3CCCC3)C2)cc1C (stereo not given) | inconclusive [inhibitor, single point] | – |
| COc1ccc(N2CCN(S(=O)(=O)c3ccc4c(c3)CC(C)N4C(C)=O)CC2)cc1 (stereo not given) | active: 6.51 µM | – |
| COc1ccc(NC(=O)CSc2nc(N)c3cc4c(nc3n2)CC(C)(C)OC4)cc1 | – | inconclusive: -31.8% [inhibitor] |
| COc1cccc(/C=N/Nc2c(Cl)cncc2Cl)c1O | inactive | – |
| NS(=O)(=O)c1ccc(CCNC(=O)CNS(=O)(=O)c2cccc(Br)c2)cc1 | inconclusive [inhibitor, single point] | – |
| Cc1cc(NC(=O)NC(C(F)(F)F)C(F)(F)F)no1 | inactive | – |
| O=C(NCC(c1cccnc1)N1CCN(c2ccc(F)cc2)CC1)c1ccc2c(c1)OCO2 (stereo not given) | active: 16.4 µM | – |
| O=C(CSC1CC(=O)N(c2ccc(C(=O)O)cc2)C1=O)Nc1ccc2ccccc2c1 (stereo not given) | inconclusive [inhibitor, single point] | – |
| CCOC(=O)N1CCN(S(=O)(=O)N2CCCC(C(=O)NCc3ccc(C)cc3)C2)CC1 (stereo not given) | inconclusive [inhibitor, single point] | – |
| CCOC(=O)C(C)N1c2cccc3cccc(c23)S1(=O)=O (stereo not given) | inactive | – |
| Cc1nn(CC(=O)NC2CC2)c(C)c1S(=O)(=O)N(C)C | inactive | – |

From PubChem BioAssay AID686979 (National Center for Advancing Translational Sciences (NCATS), 2013)
